{"source": "the supplement of paper PMC11417369", "note": "This is one part of the list.", "data": [{"test_system": "PF3D7_0420300 AP2 domain 1 (GST-tagged)", "experiment": "gcPBM binding intensity (ln(normalized median fluorescence intensity)); higher = stronger DNA binding", "in_short": "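In this array assay, P. falciparum DNA-binding domains with a GST tag, expressed in E. coli, were applied for 1 h to primer-extended double-stranded 36-bp intergenic genomic probes and negative controls on an Agilent 4 × 180k array. Bound protein was visualised with Alexa488 anti-GST antibody at 488 nm. Binding intensity is the highest Masliner-normalised natural-log median intensity across replicate spots of either probe orientation.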", "values": [{"sequence": "ACGCACGAAATAAATACATGCATATTGTAAAAATTA [TGCATGCA_site310]", "gcPBM binding intensity (ln)": 8.94}, {"sequence": "GGGAATATATTCAATTGTACATTCTTATTTTATCCA [XGTACX_site8480]", "gcPBM binding intensity (ln)": 9.26}, {"sequence": "TCTTTTTTTTTACATACTTTTTTCCTTTTTTTTTTA [CACACA_negctrl_site1429]", "gcPBM binding intensity (ln)": 9.46}, {"sequence": "GTTGTTTCTATAAATTGTACTTAAATATAATTATAT [XGTACX_site585]", "gcPBM binding intensity (ln)": 9.43}, {"sequence": "ATATATTGTATGTGCTCACACATGTTTCGATATTAT [CACACA_site4336]", "gcPBM binding intensity (ln)": 9.51}, {"sequence": "GTAAATATGTTTATTAGTACACATATGAAAATAAAT [XGTACX_site5820]", "gcPBM binding intensity (ln)": 9.27}, {"sequence": "GTTCAAAATATGAACACACACATATATATATATATA [CACACA_site2057]", "gcPBM binding intensity (ln)": 9.44}, {"sequence": "TTTCGTAATATGCGTGTGCACAATGAGTCCATATCT", "gcPBM binding intensity (ln)": 9.47}, {"sequence": "ATCTACATATATTATTGTACATTGTTAAAAATTTAT [XGTACX_site7769]", "gcPBM binding intensity (ln)": 9.32}, {"sequence": "TAAAATATAATTAGCACACATATATAAAATATATAT [CACACA_site4093]", "gcPBM binding intensity (ln)": 9.33}, {"sequence": "TTTTTTTTTTTTTGGGGTACATTTTAATTAATATTA [XGTACX_site4866]", "gcPBM binding intensity (ln)": 9.32}, {"sequence": "AACACACACATATATATATATATATATATATATATA [GTGCAC_negctrl_site573]", "gcPBM binding intensity (ln)": 9.48}, {"sequence": "TTTTTAATATTGTATGCATGTCGTAATAAAAAATTT [TGCATGCA_site259]", "gcPBM binding intensity (ln)": 9.02}, {"sequence": "ATAATAAACATATATGTACACACATATACATATATA [CACACA_site8924]", "gcPBM binding intensity (ln)": 9.48}, {"sequence": "ATATACTATTAACCACATATGTGTGTTAATTTATAT [GTGCAC_negctrl_site315]", "gcPBM binding intensity (ln)": 9.45}, {"sequence": "TTGAACCCCACTAACACACACACGCACGCTCAGAAA [CACACA_site2983]", "gcPBM binding intensity (ln)": 9.73}, {"sequence": "TGCTATTTCATATTCTGTACTAAAACAAGATAATAA [XGTACX_site3852]", "gcPBM binding intensity (ln)": 8.88}, {"sequence": "ATATTAATTATAACTTGTACGTAAAAGGAAAACAAT [XGTACX_site3269]", "gcPBM binding intensity (ln)": 9.59}, {"sequence": "TAGAAACTATGTAATGCACACCAAAATAAAATTATT [CACACA_site8578]", "gcPBM binding intensity (ln)": 9.45}, {"sequence": "TTTTGGATACTTCATTTGTCCTGTTTTTTTTTTTTA [CACACA_negctrl_site399]", "gcPBM binding intensity (ln)": 9.5}, {"sequence": "TTTTAAAAAATAAAATATTATTGAAGTAAAATATGA [CACACA_negctrl_site758]", "gcPBM binding intensity (ln)": 8.91}, {"sequence": "AAAATATATCAAAACACACTCACATATAATACTTAC [CACACA_site6031]", "gcPBM binding intensity (ln)": 9.77}, {"sequence": "TATATACTTATATACTGTACTCATCATCTTTTAAAG [XGTACX_site6099]", "gcPBM binding intensity (ln)": 9.28}, {"sequence": "TTTTTTTTTTTTTAAACATGCAAAATATATAATTTT [TGCATGCA_site633]", "gcPBM binding intensity (ln)": 8.84}, {"sequence": "TAATATATCTATAATACACACTATTCTAATCACATA [CACACA_site6731]", "gcPBM binding intensity (ln)": 9.27}, {"sequence": "ATATATGAAAATATATGTACACAACATATAAAATAG [XGTACX_site5132]", "gcPBM binding intensity (ln)": 9.41}, {"sequence": "TTTTCATTCTTATATAAATATTATTTTATATAAAAT [GTGCAC_negctrl_site674]", "gcPBM binding intensity (ln)": 8.9}, {"sequence": "AATTATATACCATGCACACAAATATTCATACAGGAA [CACACA_site4057]", "gcPBM binding intensity (ln)": 9.7}, {"sequence": "AAAAATATATATATATTTCTTCTTTGTTAAAATGTA [CACACA_negctrl_site1459]", "gcPBM binding intensity (ln)": 8.88}, {"sequence": "GTAGAATCAGTATTCACACATAAATGTATCCAAATG [CACACA_site5395]", "gcPBM binding intensity (ln)": 9.17}, {"sequence": "ATATATATATATAGAAGTACTCTTATATATTTTATA [XGTACX_site1384]", "gcPBM binding intensity (ln)": 9.04}, {"sequence": "GATATGGAATATATGTGTACATATATATATATTATA [XGTACX_site1724]", "gcPBM binding intensity (ln)": 9.2}, {"sequence": "AAAAAAAAAAAAAATACACACACATAAAAAAAAAAA [CACACA_site8555]", "gcPBM binding intensity (ln)": 9.95}, {"sequence": "CAAATTTTTAAAAATGCATGTTCATCCATCCCATAT [TGCATGCA_site467]", "gcPBM binding intensity (ln)": 9.05}, {"sequence": "TTTGTATGATCATAAAGTACTAATTTACATTCAGCA [XGTACX_site8596]", "gcPBM binding intensity (ln)": 8.94}, {"sequence": "TTTTTTACATTCTGCACACAATTTATTTTTTTTTTT [CACACA_site4188]", "gcPBM binding intensity (ln)": 9.68}, {"sequence": "TTATGGAAAAATATAACACACAATGATTTTTTATAA [CACACA_site1831]", "gcPBM binding intensity (ln)": 9.35}, {"sequence": "TTTTCGCTTTTATAAAATTATATGAAAAAACTAAAA [XGTACX_negctrl_site139]", "gcPBM binding intensity (ln)": 8.73}, {"sequence": "ATTTATATAAAATTAAAATAATACAAATTTATTCAT [GTGCAC_negctrl_site305]", "gcPBM binding intensity (ln)": 8.98}, {"sequence": "TATAACTATGGGTGTACACATTAATCGTTTTTCTTT [CACACA_site5196]", "gcPBM binding intensity (ln)": 9.42}, {"sequence": "TATTGTAAAAAAGCAAAATTTATCACCTCCTTATTT [CACACA_negctrl_site172]", "gcPBM binding intensity (ln)": 9.2}, {"sequence": "TGTAATACATGTTGTTGTACAATATCTTTAACTTTT [XGTACX_site1219]", "gcPBM binding intensity (ln)": 9.3}, {"sequence": "CCACTAAAGGCATATACACACATTTTTTAAATTGCC [CACACA_site2839]", "gcPBM binding intensity (ln)": 9.36}, {"sequence": "TACACAAAAATAAACACACACACATATAAATAAATA [CACACA_site6599]", "gcPBM binding intensity (ln)": 10.2}, {"sequence": "TAATACATAAATAATGTGCACATGGAAATATATCTT", "gcPBM binding intensity (ln)": 9.53}, {"sequence": "TATTTTATATACAGTGGTACTTTTTTTTTTTTTTTT [XGTACX_site2475]", "gcPBM binding intensity (ln)": 9.02}, {"sequence": "AAAAAAAAAAAAAAATCACACACAATATGAATTTAT [CACACA_site8100]", "gcPBM binding intensity (ln)": 9.55}, {"sequence": "ACATATATATTATAAGCATGCATGAGAAAATTTTTA [TGCATGCA_site1054]", "gcPBM binding intensity (ln)": 9.19}, {"sequence": "AAAAAAAAAAAAAAAACACACATTTGAAGAAAAAAA [CACACA_site7389]", "gcPBM binding intensity (ln)": 9.38}, {"sequence": "AATTGCTTCAAAATTAAACACACACTAATAAAAAAA [CACACA_site8855]", "gcPBM binding intensity (ln)": 9.54}, {"sequence": "ATGAATGAATACGTTTTACACACTTGAATATAATTT [CACACA_site8237]", "gcPBM binding intensity (ln)": 9.49}, {"sequence": "GTATATTGTACCATCACACATGTAAAACATAGATGT [CACACA_site5359]", "gcPBM binding intensity (ln)": 9.22}, {"sequence": "AACATAACAAAAAAAAAAAAAAATATATATATATAT [TGCATGCA_negctrl_site370]", "gcPBM binding intensity (ln)": 9.08}, {"sequence": "TATTTCACAAAAAAAAAAAAAAAAAAGAAGCAAAAA [CACACA_negctrl_site1040]", "gcPBM binding intensity (ln)": 9.09}, {"sequence": "TCCTTAAAAAAACCTTAACACACATAAACTATAATT [CACACA_site9001]", "gcPBM binding intensity (ln)": 9.52}, {"sequence": "TTTTTTTTTAAGTTTGCACACATGGAAGACAAAAAT [CACACA_site2505]", "gcPBM binding intensity (ln)": 9.35}]}]}
